Drawing on PMC5700166, this text covers binding signal for 14 sequences.

Common to all, as to assay: protein-binding microarray (PBM)
Common to all, as to conditions: PBM: ~300 nM protein, 6 mM HEPES pH 7.8, 80 mM KCl, 0.5 mM EDTA, 0.5 mM EGTA, 6% glycerol, 35 ng/ul poly-dIdC, 1% milk, 1 h, room temperature; Ap Aiptasia and Nv Nematostella (sea anemones) / Co Capsaspora / Aq Amphimedon (sponge) / Dm Drosophila / Hu human; RHD is the Rel homology domain; high values mean tight binding; most listed sequences are background and not binding sites; double strand, one strand shown

One experiment deals with T1, GST-Ap-NF-kB RHD (UniProt A0A913YAJ5).
T1 sequence: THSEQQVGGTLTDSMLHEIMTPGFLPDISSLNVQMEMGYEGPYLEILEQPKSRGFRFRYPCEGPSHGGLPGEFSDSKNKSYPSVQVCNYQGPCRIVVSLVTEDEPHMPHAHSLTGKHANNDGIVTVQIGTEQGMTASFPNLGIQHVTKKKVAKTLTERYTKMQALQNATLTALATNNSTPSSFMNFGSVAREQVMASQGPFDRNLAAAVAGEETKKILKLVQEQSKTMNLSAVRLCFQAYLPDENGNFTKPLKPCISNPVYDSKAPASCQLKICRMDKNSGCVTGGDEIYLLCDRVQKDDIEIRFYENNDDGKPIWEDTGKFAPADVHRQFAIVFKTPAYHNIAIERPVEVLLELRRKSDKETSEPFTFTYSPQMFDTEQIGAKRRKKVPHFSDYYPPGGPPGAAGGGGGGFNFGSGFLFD

The target of experiment [1] is T2, GST-Nv-NF-kB (Cys allele) (UniProt E5G601).
T2 sequence: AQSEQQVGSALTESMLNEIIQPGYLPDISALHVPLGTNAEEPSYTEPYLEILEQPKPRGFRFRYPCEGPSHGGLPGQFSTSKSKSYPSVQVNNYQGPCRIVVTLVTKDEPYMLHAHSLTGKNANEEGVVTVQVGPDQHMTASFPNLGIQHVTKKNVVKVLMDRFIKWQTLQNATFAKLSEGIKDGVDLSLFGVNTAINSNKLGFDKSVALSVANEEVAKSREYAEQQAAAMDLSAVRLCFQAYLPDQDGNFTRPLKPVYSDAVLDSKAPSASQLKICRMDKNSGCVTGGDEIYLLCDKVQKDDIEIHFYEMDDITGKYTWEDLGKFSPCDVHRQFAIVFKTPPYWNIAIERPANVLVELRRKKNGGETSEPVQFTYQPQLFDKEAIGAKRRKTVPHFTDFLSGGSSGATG

The target in another experiment is T3, GST-Co-NF-kB (UniProt F1ARL5).
T3 sequence: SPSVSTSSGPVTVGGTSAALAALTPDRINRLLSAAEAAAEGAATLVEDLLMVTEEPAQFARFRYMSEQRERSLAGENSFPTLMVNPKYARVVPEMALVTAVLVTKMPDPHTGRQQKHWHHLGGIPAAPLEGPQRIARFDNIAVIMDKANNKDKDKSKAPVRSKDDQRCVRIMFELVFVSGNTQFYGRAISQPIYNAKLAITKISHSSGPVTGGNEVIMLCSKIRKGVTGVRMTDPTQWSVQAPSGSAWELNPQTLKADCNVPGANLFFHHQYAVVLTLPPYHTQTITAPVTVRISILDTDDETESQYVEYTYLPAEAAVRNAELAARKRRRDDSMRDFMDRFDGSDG

Another experiment deals with T4, GST-Dm-Relish (UniProt Q94527).
T4 sequence: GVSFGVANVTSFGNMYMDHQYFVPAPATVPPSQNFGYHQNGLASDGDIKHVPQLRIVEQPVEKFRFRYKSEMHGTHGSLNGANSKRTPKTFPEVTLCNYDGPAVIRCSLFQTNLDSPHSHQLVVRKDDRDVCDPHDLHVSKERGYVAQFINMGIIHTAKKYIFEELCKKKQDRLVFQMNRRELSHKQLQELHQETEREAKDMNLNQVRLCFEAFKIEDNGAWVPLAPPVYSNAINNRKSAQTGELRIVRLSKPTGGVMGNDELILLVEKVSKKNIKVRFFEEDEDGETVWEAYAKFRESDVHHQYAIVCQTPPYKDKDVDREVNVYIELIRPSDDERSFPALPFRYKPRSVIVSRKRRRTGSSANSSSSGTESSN

The next experiment has as its target T5, GST-Aq-NF-kB (UniProt A9Y5G7).
T5 sequence: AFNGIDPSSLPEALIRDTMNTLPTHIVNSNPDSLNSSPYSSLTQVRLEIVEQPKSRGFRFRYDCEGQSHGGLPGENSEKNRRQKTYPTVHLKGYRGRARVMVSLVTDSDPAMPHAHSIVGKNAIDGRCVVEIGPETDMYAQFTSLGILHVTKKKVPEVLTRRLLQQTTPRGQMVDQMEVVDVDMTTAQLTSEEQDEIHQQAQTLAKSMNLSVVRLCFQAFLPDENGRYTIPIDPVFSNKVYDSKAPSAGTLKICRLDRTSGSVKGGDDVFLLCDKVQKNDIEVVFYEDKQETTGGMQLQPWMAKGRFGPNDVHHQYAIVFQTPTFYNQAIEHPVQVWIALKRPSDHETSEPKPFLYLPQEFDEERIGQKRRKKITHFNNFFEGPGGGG

This is a selection; strong and weak results do not stand in their true shares. The list includes weakly bound sequences.

Consider “CCGATTAACATCAGCATACTATTTGATGTTAATCGGGTCTTGATTCGCTTGACGCTGCTG”, for which the binding signal in the experiment with GST-Ap-NF-kB RHD is -0.149 z-score; in experiment [1], -1.05 z-score; with GST-Co-NF-kB, 0.445 z-score; in the experiment with GST-Dm-Relish, -0.549 z-score; with GST-Aq-NF-kB it was -0.371 z-score.

As for “CCGATTAACATCACGTCGAGTTTTGATGTTAATCGGGTCTTGATTCGCTTGACGCTGCTG”, the binding signal was -0.317 z-score with GST-Ap-NF-kB RHD; -0.284 z-score in experiment [1]; -0.729 z-score with GST-Co-NF-kB; -0.112 z-score with GST-Dm-Relish; -0.275 z-score with GST-Aq-NF-kB.

Regarding “CCGATTAACATCAGCCCTAGATTTGATGTTAATCGGGTCTTGATTCGCTTGACGCTGCTG”, the binding signal in the experiment with GST-Ap-NF-kB RHD is 0.444 z-score; in experiment [1], -0.363 z-score; with GST-Co-NF-kB it was -0.204 z-score; in the experiment with GST-Dm-Relish, -0.534 z-score; with GST-Aq-NF-kB it was -0.391 z-score.

Take “CCGATTAACATCATCTCACATGTTGATGTTAATCGGGTCTTGATTCGCTTGACGCTGCTG”: the binding signal was -0.739 z-score with GST-Ap-NF-kB RHD; -0.545 z-score in experiment [1]; 0.189 z-score with GST-Co-NF-kB; -0.376 z-score with GST-Dm-Relish; -0.519 z-score with GST-Aq-NF-kB.

As for “CCGATTAACATCACAAGGCGTTATGATGTTAATCGGGTCTTGATTCGCTTGACGCTGCTG”, the binding signal in the experiment with GST-Ap-NF-kB RHD was -0.0133 z-score; in experiment [1], -0.336 z-score; in the experiment with GST-Co-NF-kB it was -0.211 z-score; in the experiment with GST-Dm-Relish, -0.405 z-score; with GST-Aq-NF-kB it was -0.19 z-score.

For the sequence “CCGATTAACATCATTGTGTTTTGTGATGTTAATCGGGTCTTGATTCGCTTGACGCTGCTG”, the binding signal is 0.219 z-score in the experiment with GST-Ap-NF-kB RHD; -0.359 z-score in experiment [1]; 0.557 z-score with GST-Co-NF-kB; 0.493 z-score with GST-Dm-Relish; -0.489 z-score in the experiment with GST-Aq-NF-kB.

Take “CCGATTAACATCACTTCAGCGGCTGATGTTAATCGGGTCTTGATTCGCTTGACGCTGCTG”: the binding signal with GST-Ap-NF-kB RHD is -0.0357 z-score; in experiment [1], -1.06 z-score; with GST-Co-NF-kB it was -0.527 z-score; with GST-Dm-Relish, 0.181 z-score; with GST-Aq-NF-kB it was -0.369 z-score.

As to “CCGATTAACATCATATTTCAGGTTGATGTTAATCGGGTCTTGATTCGCTTGACGCTGCTG”, the binding signal with GST-Ap-NF-kB RHD was 0.0711 z-score; in experiment [1] it was -0.872 z-score; in the experiment with GST-Co-NF-kB it was -0.0388 z-score; with GST-Dm-Relish, -0.461 z-score; with GST-Aq-NF-kB it was -0.316 z-score.

As for “CCGATTAACATCAGGATATGCCCTGATGTTAATCGGGTCTTGATTCGCTTGACGCTGCTG”, the binding signal with GST-Ap-NF-kB RHD is 0.104 z-score; in experiment [1], 0.147 z-score; with GST-Co-NF-kB it was -0.678 z-score; with GST-Dm-Relish it was 0.0206 z-score; with GST-Aq-NF-kB it was 1.7 z-score.

For the sequence “CCGATTAACATCACGGGTCACTCTGATGTTAATCGGGTCTTGATTCGCTTGACGCTGCTG”, the binding signal in the experiment with GST-Ap-NF-kB RHD is 0.362 z-score; in experiment [1], 0.208 z-score; with GST-Co-NF-kB it was 0.875 z-score; with GST-Dm-Relish, -0.307 z-score; with GST-Aq-NF-kB it was 0.00597 z-score.

As for “CCGATTAACATCATTCCGGAATATGATGTTAATCGGGTCTTGATTCGCTTGACGCTGCTG”, the binding signal was -0.378 z-score with GST-Ap-NF-kB RHD; 0.174 z-score in experiment [1]; -0.782 z-score with GST-Co-NF-kB; -0.649 z-score with GST-Dm-Relish; 0.345 z-score with GST-Aq-NF-kB.

With “CCGATTAACATCAAAGCACTTTTTGATGTTAATCGGGTCTTGATTCGCTTGACGCTGCTG”, the binding signal is -0.593 z-score with GST-Ap-NF-kB RHD; 0.127 z-score in experiment [1]; -0.513 z-score with GST-Co-NF-kB; 0.824 z-score in the experiment with GST-Dm-Relish; -0.315 z-score with GST-Aq-NF-kB.

As to “CCGATTAACATCAGGGGATTTTATGATGTTAATCGGGTCTTGATTCGCTTGACGCTGCTG”, the binding signal in the experiment with GST-Ap-NF-kB RHD stood at 10.4 z-score; in experiment [1], 11.7 z-score; with GST-Co-NF-kB it was 4.81 z-score; with GST-Dm-Relish, 9.55 z-score; in the experiment with GST-Aq-NF-kB, 8.66 z-score.

With “CCGATTAACATCATAATCTATCATGATGTTAATCGGGTCTTGATTCGCTTGACGCTGCTG”, the binding signal with GST-Ap-NF-kB RHD was -1.05 z-score; in experiment [1], -0.446 z-score; in the experiment with GST-Co-NF-kB it was -1.07 z-score; with GST-Dm-Relish, -0.691 z-score; with GST-Aq-NF-kB, -0.397 z-score.
